Laboratory results from the supplement of paper PMC8728848.
This is one part of the list.

Columns and labels:
Test in all cases: glycan array binding signal (z-score within array); higher = stronger binding
Conditions in all cases: glycan notation: IUPAC condensed, linker removed
[1] = target: GlcNAc(b1-4)GlcNAc(b1-4)GlcNAc
Outline: (§1)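 From the Consortium for Functional Glycomics database, 3228 arrays were curated, keeping only those whose protein sequence was available. Binding is given as a within-array Z-score averaged across arrays sharing a protein sequence and across linkers. Negative Z-scores can be read as non-binding.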

[2] = target: GlcNAc(b1-4)GlcNAc(b1-4)GlcNAc(b1-4)GlcNAc
Outline: as §1

[3] = target: GlcNAc(b1-4)GlcNAc(b1-4)GlcNAc(b1-4)GlcNAc(b1-4)GlcNAc
Outline: as §1

[4] = target: GlcNAc(b1-4)GlcNAc(b1-4)GlcNAc(b1-4)GlcNAc(b1-4)GlcNAc(b1-4)GlcNAc
Outline: as §1

[5] = target: GlcNAc(b1-4)GlcNAc(b1-4)GlcNAc(b1-4)GlcNAc(b1-4)GlcNAc(b1-4)GlcNAc(b1-4)GlcNAc
Outline: as §1

[6] = target: GlcNAc(b1-4)GlcNAc(b1-4)GlcNAc(b1-4)GlcNAc(b1-4)GlcNAc(b1-4)GlcNAc(b1-4)GlcNAc(b1-4)GlcNAc
Outline: as §1

[7] = target: HexA(a1-3)GalNAc4S(b1-4)GlcA(b1-3)GalNAc4S
Outline: as §1

[8] = target: HexA(a1-3)GalNAc4S(b1-4)GlcA(b1-3)GalNAc4S(b1-4)GlcA(b1-3)GalNAc4S(b1-4)GlcA(b1-3)GalNAc4S(b1-4)GlcA(b1-3)GalNAc4S(b1-4)GlcA(b1-3)GalNAc4S(b1-4)GlcA(b1-3)GalNAc4S
Outline: as §1

[9] = target: HexA(a1-3)GalNAc4S(b1-4)IdoA(a1-3)GalNAc4S
Outline: as §1

[10] = target: HexA(a1-3)GalNAc4S(b1-4)IdoA(a1-3)GalNAc4S(b1-4)IdoA(a1-3)GalNAc4S(b1-4)IdoA(a1-3)GalNAc4S(b1-4)IdoA(a1-3)GalNAc4S(b1-4)IdoA(a1-3)GalNAc4S(b1-4)IdoA(a1-3)GalNAc4S
Outline: as §1

[11] = target: HexA(a1-3)GalNAc6S(b1-4)GlcA(b1-3)GalNAc6S
Outline: as §1

[12] = target: HexA(a1-3)GalNAc6S(b1-4)GlcA(b1-3)GalNAc6S(b1-4)GlcA(b1-3)GalNAc6S(b1-4)GlcA(b1-3)GalNAc6S(b1-4)GlcA(b1-3)GalNAc6S(b1-4)GlcA(b1-3)GalNAc6S(b1-4)GlcA(b1-3)GalNAc6S
Outline: as §1

HexA2S(a1-4)GlcNS6S = target: HexA2S(a1-4)GlcNS6S
Outline: as §1

[13] = target: HexA6S(a1-4)GlcNS6S(a1-4)IdoA2S(a1-4)GlcNS6S
Outline: as §1

[14] = target: HexA6S(a1-4)GlcNS6S(a1-4)IdoA2S(a1-4)GlcNS6S(a1-4)IdoA2S(a1-4)GlcNS6S(a1-4)IdoA2S(a1-4)GlcNS6S(a1-4)IdoA2S(a1-4)GlcNS6S(a1-4)IdoA2S(a1-4)GlcNS6S(a1-4)IdoA2S(a1-4)GlcNS6S
Outline: as §1

[15] = target: Kdn(a2-3)Gal(b1-3)GalNAc(b1-4)[Kdn(a2-3)]Gal(b1-4)Glc
Outline: as §1

[16] = target: Kdn(a2-3)Gal(b1-3)GlcNAc(b1-3)Gal(b1-4)Glc
Outline: as §1

Kdn(a2-3)Gal(b1-4)Glc = target: Kdn(a2-3)Gal(b1-4)Glc
Outline: as §1

[17] = target: Kdn(a2-3)Gal(b1-4)[Fuc(a1-3)]GlcNAc(b1-3)Gal
Outline: as §1

[18] = target: Kdn(a2-3)Gal(b1-4)[Fuc(a1-3)]GlcNAc(b1-3)Gal(b1-4)Glc
Outline: as §1

[19] = target: Kdn(a2-3)Gal(b1-4)[Rha(a1-3)]GlcNAc(b1-3)Gal(b1-4)Glc
Outline: as §1

[20] = target: Kdn(a2-3)[GalNAc(b1-4)]Gal(b1-4)Glc
Outline: as §1

Kdn(a2-6)Gal = target: Kdn(a2-6)Gal
Outline: as §1

Man(a1-2)Man = target: Man(a1-2)Man
Outline: as §1

[21] = target: Man(a1-2)Man(a1-2)Man(a1-3)[Man(a1-2)Man(a1-3)[Man(a1-2)Man(a1-6)]Man(a1-6)]Man(b1-4)GlcNAc(b1-4)GlcNAc
Outline: as §1

[22] = target: Man(a1-2)Man(a1-2)Man(a1-3)[Man(a1-2)Man(a1-6)[Man(a1-3)]Man(a1-6)]Man(b1-4)GlcNAc(b1-4)GlcNAc
Outline: as §1

[23] = target: Man(a1-2)Man(a1-2)Man(a1-3)[Man(a1-3)[Man(a1-6)]Man(a1-6)]Man(b1-4)GlcNAc(b1-4)GlcNAc
Outline: as §1

[24] = target: Man(a1-2)Man(a1-3)[Man(a1-2)Man(a1-6)[Man(a1-3)]Man(a1-6)]Man(b1-4)GlcNAc(b1-4)GlcNAc
Outline: as §1

[25] = target: Man(a1-2)Man(a1-3)[Man(a1-3)[Man(a1-6)]Man(a1-6)]Man(b1-4)GlcNAc(b1-4)GlcNAc
Outline: as §1

Man(a1-3)Man = target: Man(a1-3)Man
Outline: as §1

[26] = target: Man(a1-3)Man(a1-6)[Man(a1-3)]Man(b1-4)GlcNAc(b1-4)GlcNAc
Outline: as §1

Man(a1-3)Man(b1-4)GlcNAc = target: Man(a1-3)Man(b1-4)GlcNAc
Outline: as §1

Man(a1-3)[Man(a1-6)]Man = target: Man(a1-3)[Man(a1-6)]Man
Outline: as §1

[27] = target: Man(a1-3)[Man(a1-6)]Man(a1-6)Man(b1-4)GlcNAc(b1-4)GlcNAc
Outline: as §1

[28] = target: Man(a1-3)[Man(a1-6)]Man(a1-6)[Man(a1-3)]Man
Outline: as §1

[29] = target: Man(a1-3)[Man(a1-6)]Man(a1-6)[Man(a1-3)]Man(b1-4)GlcNAc(b1-4)GlcNAc
Outline: as §1

[30] = target: Man(a1-3)[Man(a1-6)]Man(b1-4)GlcNAc(b1-4)GlcNAc
Outline: as §1

[31] = target: Man(a1-3)[Man(a1-6)]Man(b1-4)GlcNAc(b1-4)[Fuc(a1-6)]GlcNAc
Outline: as §1

Man(a1-6)Man = target: Man(a1-6)Man
Outline: as §1

[32] = target: Man(a1-6)Man(b1-4)GlcNAc(b1-4)GlcNAc
Outline: as §1

Man(b1-4)GlcNAc = target: Man(b1-4)GlcNAc
Outline: as §1

[33] = target: Man(b1-4)Man(b1-4)Man(b1-4)Man
Outline: as §1

[34] = target: Man(b1-4)Man(b1-4)Man(b1-4)Man(b1-4)Man
Outline: as §1

[35] = target: Man(b1-4)Man(b1-4)Man(b1-4)Man(b1-4)Man(b1-4)Man
Outline: as §1

[36] = target: Man6P(a1-3)Man(a1-3)Man(a1-3)Man(a1-2)Man
Outline: as §1

B1: HysACBM (Streptococcus pneumoniae), Q54873 (protein)
chain: KNLVENGDFGQTEDGSSPWTGSKAQGWSAWVDQKNSADASTRVIEAKDGAITISSHEKLRAALHRMVPIEAKKKYKLRFKIKTDNKIGIAKVRIIEESGKDKRLWNSATTSGTKDWQTIEADYSPTLDVDKIKLELFYETGTGTVSFKDIELVEVADQLS
- glycan array binding signal (z-score) [1]: -0.089
- glycan array binding signal (z-score) [2]: 0.1
- glycan array binding signal (z-score) [3]: 0.017
- glycan array binding signal (z-score) [4]: -0.091
- glycan array binding signal (z-score) [5]: -0.091
- glycan array binding signal (z-score) [6]: -0.091
- glycan array binding signal (z-score) [7]: -0.091
- glycan array binding signal (z-score) [8]: -0.091
- glycan array binding signal (z-score) [9]: -0.091
- glycan array binding signal (z-score) [10]: -0.091
- glycan array binding signal (z-score) [11]: 0.105
- glycan array binding signal (z-score) [12]: -0.091
- glycan array binding signal (z-score) (HexA2S(a1-4)GlcNS6S): -0.091
- glycan array binding signal (z-score) [13]: -0.091
- glycan array binding signal (z-score) [14]: -0.091
- glycan array binding signal (z-score) [15]: -0.091
- glycan array binding signal (z-score) [16]: -0.091
- glycan array binding signal (z-score) (Kdn(a2-3)Gal(b1-4)Glc): -0.005
- glycan array binding signal (z-score) [17]: -0.091
- glycan array binding signal (z-score) [18]: -0.091
- glycan array binding signal (z-score) [19]: -0.091
- glycan array binding signal (z-score) [20]: -0.091
- glycan array binding signal (z-score) (Kdn(a2-6)Gal): -0.091
- glycan array binding signal (z-score) (Man(a1-2)Man): -0.062
- glycan array binding signal (z-score) [21]: -0.091
- glycan array binding signal (z-score) [22]: -0.078
- glycan array binding signal (z-score) [23]: -0.091
- glycan array binding signal (z-score) [24]: -0.091
- glycan array binding signal (z-score) [25]: -0.091
- glycan array binding signal (z-score) (Man(a1-3)Man): -0.091
- glycan array binding signal (z-score) [26]: -0.091
- glycan array binding signal (z-score) (Man(a1-3)Man(b1-4)GlcNAc): -0.091
- glycan array binding signal (z-score) (Man(a1-3)[Man(a1-6)]Man): -0.078
- glycan array binding signal (z-score) [27]: -0.091
- glycan array binding signal (z-score) [28]: -0.002
- glycan array binding signal (z-score) [29]: -0.091
- glycan array binding signal (z-score) [30]: -0.091
- glycan array binding signal (z-score) [31]: -0.091
- glycan array binding signal (z-score) (Man(a1-6)Man): 0.152
- glycan array binding signal (z-score) [32]: -0.091
- glycan array binding signal (z-score) (Man(b1-4)GlcNAc): -0.091
- glycan array binding signal (z-score) [33]: 0.103
- glycan array binding signal (z-score) [34]: -0.091
- glycan array binding signal (z-score) [35]: -0.091
- glycan array binding signal (z-score) [36]: 0.069
